# The whole screen tested about 310,000 compounds, of which about 14,000 (4.5%) showed an effect of 50% or more. Effects have a minus sign here. This is one part of the list.
# Target: human ether-à-go-go-related gene (hERG) potassium channel (human, UniProt Q12809)
# Experiment: primary screen, population patch clamp on CHO cells stably expressing hERG
# 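Also: peak tail current of the secondary pulse compared with the same well before compound.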
# Chain of human ether-à-go-go-related gene (hERG) potassium channel (Q12809 whole entry, looked up): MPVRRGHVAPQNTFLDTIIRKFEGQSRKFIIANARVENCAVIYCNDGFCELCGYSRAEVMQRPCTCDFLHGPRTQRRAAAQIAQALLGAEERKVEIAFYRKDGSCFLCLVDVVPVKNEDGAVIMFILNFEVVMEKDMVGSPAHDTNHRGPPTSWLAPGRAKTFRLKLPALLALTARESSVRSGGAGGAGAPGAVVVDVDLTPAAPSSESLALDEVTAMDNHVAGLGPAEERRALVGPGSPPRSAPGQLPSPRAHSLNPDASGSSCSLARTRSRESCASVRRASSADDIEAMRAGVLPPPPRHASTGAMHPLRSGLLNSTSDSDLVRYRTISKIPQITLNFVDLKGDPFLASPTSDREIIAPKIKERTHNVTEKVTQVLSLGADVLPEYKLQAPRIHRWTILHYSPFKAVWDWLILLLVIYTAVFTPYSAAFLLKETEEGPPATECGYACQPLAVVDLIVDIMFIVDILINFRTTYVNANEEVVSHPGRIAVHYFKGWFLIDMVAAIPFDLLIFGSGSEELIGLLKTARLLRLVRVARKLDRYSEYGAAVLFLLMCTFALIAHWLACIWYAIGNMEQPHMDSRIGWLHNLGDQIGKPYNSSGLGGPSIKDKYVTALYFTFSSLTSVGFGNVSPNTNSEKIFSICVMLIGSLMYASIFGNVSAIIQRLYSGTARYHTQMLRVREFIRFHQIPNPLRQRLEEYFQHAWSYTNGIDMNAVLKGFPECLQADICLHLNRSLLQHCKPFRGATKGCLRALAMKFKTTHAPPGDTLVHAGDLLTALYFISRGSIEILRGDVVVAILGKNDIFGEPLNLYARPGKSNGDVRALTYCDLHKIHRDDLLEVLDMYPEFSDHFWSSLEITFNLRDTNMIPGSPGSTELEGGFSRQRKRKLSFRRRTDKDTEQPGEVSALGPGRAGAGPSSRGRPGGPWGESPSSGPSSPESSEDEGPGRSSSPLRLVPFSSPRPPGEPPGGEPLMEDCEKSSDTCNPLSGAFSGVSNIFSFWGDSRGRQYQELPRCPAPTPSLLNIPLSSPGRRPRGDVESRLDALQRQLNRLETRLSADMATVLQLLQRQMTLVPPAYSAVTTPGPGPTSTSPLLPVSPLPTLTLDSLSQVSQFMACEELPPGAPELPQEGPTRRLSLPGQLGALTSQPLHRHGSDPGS
row,SMILES,"hERG current change (%, negative = inhibition) at 10uM [%]"
1,O=C(COCc1cc(-c2ccc3c(c2)OCO3)on1)Nc1cccnc1Cl,13.3
2,Cc1cc(C(=O)Nc2ccccc2C)n(-c2ccccc2)n1,16.5
3,CCc1nc(SCC(=O)N2CCN(c3ccccc3)CC2)c2oc3ccccc3c2n1,-5.14
4,CCCN1CCC(=O)N([C@H](COc2ccccc2)CC(C)C)CC1,-81.9
5,O=C1c2ccccc2C(=O)c2c1cccc2N1CCOCC1,-30.4
6,CN(C)/C=C(\C#N)C(=O)N/N=C/c1ccc(F)cc1,-10.1
7,O=C(CCCCCCC(=O)Nc1ccccc1)NO,9.71
8,CCCn1cc(CN2CCC(n3nccc3NC(=O)c3ccccc3)CC2)c(C)n1,-11
9,CC(C)(CO)NC(=O)C(Cc1ccccc1)N1C(=O)c2ccccc2C1=O (stereo not shown),17
10,C=C(CO)C1Cc2cc(C(C)=O)ccc2O1 (stereo not shown),8.58
11,Cc1c(-n2c(SCC(=O)NC(C)C)nc3ccccc3c2=O)c(=O)n(-c2ccccc2)n1C,11.1
12,OCCOCCn1c(C(CO)Nc2nc(-c3ccc(Cl)cc3)cs2)nc2ccccc21 (stereo not shown),-23.4
13,Cc1noc(C)c1C(=O)Nc1ccc2c(c1)CCC2,-3.4
14,CCCn1nc(C(=O)NNC(=O)Cc2ccc(S(=O)(=O)N3CCOCC3)s2)c2ccccc2c1=O,-27.5
15,COCCCN1C(=O)c2ccc(C(=O)NCc3ccco3)cc2C1=O,11
16,CCn1ncc(C2=NOC(C(=O)NCCc3ccccc3)C2)c1C (stereo not shown),5.33
17,CCOC(=O)Nc1ccc2c(c1)N(C(=O)CCN1CCN(CCO)CC1)c1ccccc1S2.Cl,-27.5
18,COCCNC(=O)c1ccc2c(c1)ncn2-c1cccc(C)c1,-5.84
19,CCc1ccccc1OC[C@@H](O)CN[C@H]1CCCc2ccccc21.O=C(O)C(=O)O,-24.7
20,S=C(NCc1ccc(Cl)c(Cl)c1)Nc1ccc2c(c1)OCO2,-6.19
21,Cc1c(C(=O)OCC(=O)N2CCC(C)CC2)oc2ccccc12,-29.6
22,COc1ccccc1-c1ccc2nnc(SCC(=O)N3CCCC3)n2n1,5.43
23,O=C(C1CCN(S(=O)(=O)c2cccc3cccnc23)CC1)N1CCN(C2CCCC2)CC1,11.5

row,SMILES,"hERG current change (%, negative = inhibition) at 10uM [%]"
1,CCc1ccc(C(=O)Nc2cccc(-c3nn[nH]n3)c2)s1,16.9
2,COc1ccc(CC(NC(C)=O)C(=O)N2CCN(C(=O)Nc3cccc(F)c3)CC2)cc1OC (stereo not shown),13.6
3,COc1cc(CCC(=O)Nc2ccc(Cl)c(C(F)(F)F)c2)cc(OC)c1OC,13.1
4,CC1CC(C)CN(c2ccc(NS(=O)(=O)c3ccccc3)cc2C(=O)O)C1 (stereo not shown),-10.6
5,CCN(CC)c1nc2ccccc2[nH]c1=O,-2.02
6,Cc1ccc(Nc2nnc(-c3ccncc3)s2)c(Br)c1,-59.3
7,Cc1cc(NC(=O)CSc2nc(N)c(NC(=O)c3ccccc3F)c(=O)[nH]2)no1,27.7
8,CC(C)(CNS(=O)(=O)c1ccc2ccccc2c1)N1CCOCC1,-2.89
9,C[C@H](NC(=O)[C@@H]1Cc2ccccc2CN1)C(=O)NCC1CCCO1 (stereo partly shown),26.3
10,CCCOc1ccccc1/C=N/NC(=O)C1CC1,3.97
11,O=C(O)CCSc1nnc(-c2ccncc2)n1-c1ccccc1,7.13
12,CC1C/C(=C/c2ccco2)C(=O)/C(=C/c2ccco2)C1 (stereo not shown),1.66
13,Cc1ccc(-c2ccc(CCC(=O)O)n2CC2CCCO2)cc1 (stereo not shown),8.23
14,CCOC(=O)C1CCCN(C(=O)COc2ccccc2F)C1 (stereo not shown),15.5
15,CC(=O)Nc1ccc(NC(=O)C(C)OC(=O)c2cccc(S(=O)(=O)N3CCCC3)c2)cc1 (stereo not shown),10.4
16,CN(CC(=O)Nc1cccc(F)c1)C(=O)c1sc2ccccc2c1Cl,-30.8
17,CCNS(=O)(=O)c1ccc(NS(C)(=O)=O)cc1,1.37
18,Cc1nc2cc(O)ccc2n1C,13.1
19,O=C(CN1CCSCC1)N/N=C/c1ccc(F)c(F)c1,-14.8
20,O=C1COc2ccc(C(=O)c3ccccc3C(=O)NCc3ccccc3)cc2N1,-5.41
21,CN1C(=O)c2ccccc2C(C(=O)O)C1c1cccc(Cl)c1 (stereo not shown),0.8
22,CCCCn1c(-c2ccco2)n[nH]c1=S,16.9
23,S=C(NCCCN1CCOCC1)Nc1ccc(Nc2ccccc2)cc1,-15.8

# Reference: publication PMC4336329 (PLoS ONE, 2015)
